Results taken from PubChem BioAssay AID1508642 (National Center for Advancing Translational Sciences (NCATS), 2021).
Screen size: about 43,000 compounds; about 200 (0.47%) were called active. This list was built around the results that the source calls inconclusive (neither active nor inactive); the mix of calls is not that of the screen. The call rests on the fitted dose curve; in most records, active means well fitted cell-killing curve with a large enough effect; inconclusive means small, poorly fitted or top-dose-only effect, or effect the other way; inactive means flat fitted curve, though single readings scatter. Potencies of inconclusive entries are doubtful fits and often do not repeat.

Test: Cell viability qHTS assay in S16 Pmp22-F2sN cells; further: nearly all actives have a fitted effect of over 65% in size
Conditions: S16 Pmp22-F2sN Schwann cells (luciferase reporters placed in the Pmp22 gene) viability, CellTiter-Glo, 24 h; activity change, negative = cytotoxicity: at 57.5 µM (top of the series)
Method in brief: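 Rat S16 Schwann reporter line, 24 h treatment with library compounds delivered at 23 nL per well. Cell viability by CellTiter-Glo luminescence.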
On the % scale 0 is the no-effect control and ±100 the full control effect; potency means the concentration at half of the fitted maximal effect; tags describe the fitted curve by direction and shape.

Q: With `CCCCC(=O)OC1=C(C(=O)c2ccccc2)N(CC)S(=O)(=O)c2ccccc21` as the compound, how does the “activity change, negative = cytotoxicity” value read?
A: inactive: -0.323%

Q: Which Potency does the source give for `CCOc1ccc(S(=O)(=O)N(C(=O)c2ccncc2)c2ccc3oc(C)c(C(=O)OC)c3c2)cc1` here?
A: inconclusive: 5.01 µM [cytotoxic, full curve]

Q: Which “activity change, negative = cytotoxicity” value does the source give for `CCOc1ccc(C2=CC(c3cc(Br)ccc3F)n3ncnc3N2)cc1Cl` (configuration not stated) here?
A: inactive: -2.43%

Q: With `Cc1nn(CC(=O)Nc2cccc(C(F)(F)F)c2)c(=O)c2nn(-c3ccccc3)c(C)c12` as the compound, how does the Potency read?
A: inconclusive: 22.4 µM [cytotoxic, single point]

Q: Which Potency does the source give for `CN(C(=O)CSc1nc2ccccc2n1Cc1cccc(C(F)(F)F)c1)c1ccccc1` here?
A: inconclusive: 31.6 µM [cytotoxic, single point]

Q: Which Potency does the source give for `CCN(CC)C(=O)C1=C(C)Nc2nc3ccccc3n2C1c1cccc(Cl)c1` (configuration not stated) here?
A: inconclusive: 39.8 µM [rising, partial curve, poor fit]

Q: For `Cc1ccc(NC(=O)Cn2c(=O)c(CNc3ccccc3)cc3cc4c(cc32)OCCO4)cc1`, which Potency is on record?
A: inconclusive: 28.2 µM [cytotoxic, single point]

Q: With `COc1cc(CNc2ccc3[nH]c(=O)[nH]c3c2)cc(Cl)c1OCc1ccccc1F` as the compound, how does the Potency read?
A: inconclusive: 39.8 µM [cytotoxic, single point]

Q: For `COc1ccccc1Cn1c(CNS(=O)(=O)c2cccc([N+](=O)[O-])c2)nc2cccnc21`, which Potency is on record?
A: inconclusive: 39.8 µM [cytotoxic, single point]

Q: Which “activity change, negative = cytotoxicity” value does the source give for `CCOC(=O)N1CCN(Cc2nc3cc(NC(=O)CC(C)C)ccc3n2C(C)C)CC1` here?
A: inactive: -17.8%

Q: With `CC1=C(C(=O)Nc2ccccc2)C(c2ccc(F)cc2)n2nc(SCc3cc(C)ccc3C)nc2N1` (configuration not stated) as the compound, how does the “activity change, negative = cytotoxicity” value read?
A: inactive: 3.26%

Q: For `COc1ccc(C)cc1NC(=O)CSc1ncc2c(n1)-c1ccc(Cl)cc1N(Cc1ccccc1)S2(=O)=O`, which Potency is on record?
A: inconclusive: 14.1 µM [cytotoxic, partial curve]

Q: With `CCCN(CCC)CCNC(=O)c1cc2c(=O)oc3ccc(C)cc3c2s1` as the compound, how does the Potency read?
A: inconclusive: 39.8 µM [cytotoxic, single point]

Q: Which Potency does the source give for `CCOC(=O)c1ccc(NC(=O)c2cc(=O)c3ccc(C)c(C)c3o2)cc1` here?
A: inconclusive: 39.8 µM [cytotoxic, single point]

Q: With `COc1ccc(N(CC(=O)N2CCN(c3cccc(Cl)c3)CC2)S(=O)(=O)c2c(C)noc2C)cc1` as the compound, how does the “activity change, negative = cytotoxicity” value read?
A: inactive: -26.6%

Q: Which Potency does the source give for `O=C(Nc1ccc2oc(-c3cccc4c(Br)cccc34)nc2c1)c1cccc(Cl)c1` here?
A: inconclusive: 39.8 µM [cytotoxic, single point]

Q: With `Cc1cc(F)ccc1NC(=O)C1CCCN(C(=O)c2cnn(-c3ccccc3)c2-n2cccc2)C1` (configuration not stated) as the compound, how does the Potency read?
A: inconclusive: 39.8 µM [cytotoxic, single point]

Q: Which Potency does the source give for `CCCN1CCN(CCCNC(=O)c2cc3c(s2)-c2c(C)cccc2OC3)CC1` here?
A: inconclusive: 31.6 µM [cytotoxic, single point]

Q: With `CCc1ccc2nc(N(Cc3cccnc3)C(=O)Cc3ccccc3)sc2c1` as the compound, how does the Potency read?
A: inconclusive: 39.8 µM [cytotoxic, single point]

Q: Which Potency does the source give for `CC(C)c1ccc(NC(=O)C2CCC(CNS(=O)(=O)c3ccc4c(c3)CCCC(=O)N4)CC2)cc1` (configuration not stated) here?
A: inconclusive: 25.1 µM [cytotoxic, single point]

Q: For `CC(C)c1ccc(NC(=O)c2cc(S(=O)(=O)NCCc3ccccc3)ccc2F)cc1`, which Potency is on record?
A: inconclusive: 39.8 µM [cytotoxic, single point]

Q: For `Cc1ccc(-n2nc(C(=O)N(C)c3ccccc3Cl)c3c4ccccc4n(C)c3c2=O)cc1`, which Potency is on record?
A: inconclusive: 3.16 µM [cytotoxic, partial curve, poor fit]

Q: Which “activity change, negative = cytotoxicity” value does the source give for `COc1cc2[nH]c(=O)n(CCCC(=O)N(C)Cc3ccccc3)c(=O)c2cc1OC` here?
A: inactive: -1.66%

Q: For `COc1ccc(C)cc1-n1c(SCC(=O)NCc2ccco2)nc2c([nH]c3ccccc32)c1=O`, which Potency is on record?
A: inconclusive: 39.8 µM [cytotoxic, single point]

Q: With `COc1ccc(-c2noc(CC(=O)N(C)c3cc(Cl)c(OC)cc3OC)n2)cc1` as the compound, how does the Potency read?
A: inconclusive: 7.08 µM [rising, full curve]

Q: With `Cc1ccc(S(=O)(=O)c2nnn3c2nc(NC2CCCCC2)c2sccc23)cc1C` as the compound, how does the Potency read?
A: inconclusive: 39.8 µM [cytotoxic, single point]

Q: Which Potency does the source give for `COc1ccc2nc(N(Cc3cccnc3)C(=O)c3ccc(Cl)cc3)sc2c1` here?
A: inconclusive: 28.2 µM [cytotoxic, partial curve, poor fit]

Q: Which Potency does the source give for `O=S(=O)(NCC(c1ccco1)N1CCN(c2ccc(F)cc2)CC1)c1cc(F)ccc1F` (configuration not stated) here?
A: inconclusive: 35.5 µM [cytotoxic, partial curve, poor fit]

Q: For `CC1(C)CC(=O)c2cc(-c3nc(-c4ccc(Br)cc4)cs3)c(=O)n(-c3ccccc3)c2C1`, which Potency is on record?
A: inconclusive: 14.1 µM [rising, partial curve, poor fit]

Q: For `Cc1cc(C)cc(NC(=O)CSCc2cc(=O)c3cc(Cl)ccc3[nH]2)c1`, which Potency is on record?
A: inconclusive: 31.6 µM [rising, single point]

Q: Which Potency does the source give for `CCCC(=O)Nc1ccc2nn(-c3ccc(CC)cc3)nc2c1` here?
A: inconclusive: 28.2 µM [cytotoxic, single point]

Q: With `Cn1c(=O)c2c(-c3ccccc3Br)n(C(C)(C)C)cc2n(C)c1=O` as the compound, how does the “activity change, negative = cytotoxicity” value read?
A: inactive: 0.595%

Q: For `O=C(Nc1ccccc1C(=O)OCc1cc(=O)n2c3c(sc2n1)CCCC3)c1ccc(Cl)cc1`, which Potency is on record?
A: inconclusive: 25.1 µM [cytotoxic, single point]

Q: Which Potency does the source give for `CCOC(=O)c1c(C)[nH]c(C)c1S(=O)(=O)N1CCCC(C(=O)N2CCN(c3ccc(Cl)cc3)CC2)C1` (configuration not stated) here?
A: inconclusive: 39.8 µM [cytotoxic, single point]

Q: For `CCC1CCCCN1CCCNC(=O)c1cc2c(Cl)nc3ccc(C)cc3c2s1` (configuration not stated), which Potency is on record?
A: inconclusive: 39.8 µM [cytotoxic, single point]

Q: For `CSc1ccc(CCNC(=O)c2sc3ncccc3c2-n2cccc2)cc1`, which Potency is on record?
A: inconclusive: 39.8 µM [cytotoxic, partial curve, poor fit]

Q: With `COc1cccc(-n2cc(C(=O)NCCc3cccc(C)c3)c3ccccc3c2=O)c1` as the compound, how does the Potency read?
A: inconclusive: 31.6 µM [cytotoxic, single point]
